SMILES strings stand for the structures. About 14,000 (4.5%) of roughly 310,000 compounds showed an effect of 50% or more. Effects have a minus sign here. The list shows a part of the results.
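Further: peak tail current of the secondary pulse compared with the same well before compound.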

Sequence of human ether-à-go-go-related gene (hERG) potassium channel (Q12809 whole entry, looked up): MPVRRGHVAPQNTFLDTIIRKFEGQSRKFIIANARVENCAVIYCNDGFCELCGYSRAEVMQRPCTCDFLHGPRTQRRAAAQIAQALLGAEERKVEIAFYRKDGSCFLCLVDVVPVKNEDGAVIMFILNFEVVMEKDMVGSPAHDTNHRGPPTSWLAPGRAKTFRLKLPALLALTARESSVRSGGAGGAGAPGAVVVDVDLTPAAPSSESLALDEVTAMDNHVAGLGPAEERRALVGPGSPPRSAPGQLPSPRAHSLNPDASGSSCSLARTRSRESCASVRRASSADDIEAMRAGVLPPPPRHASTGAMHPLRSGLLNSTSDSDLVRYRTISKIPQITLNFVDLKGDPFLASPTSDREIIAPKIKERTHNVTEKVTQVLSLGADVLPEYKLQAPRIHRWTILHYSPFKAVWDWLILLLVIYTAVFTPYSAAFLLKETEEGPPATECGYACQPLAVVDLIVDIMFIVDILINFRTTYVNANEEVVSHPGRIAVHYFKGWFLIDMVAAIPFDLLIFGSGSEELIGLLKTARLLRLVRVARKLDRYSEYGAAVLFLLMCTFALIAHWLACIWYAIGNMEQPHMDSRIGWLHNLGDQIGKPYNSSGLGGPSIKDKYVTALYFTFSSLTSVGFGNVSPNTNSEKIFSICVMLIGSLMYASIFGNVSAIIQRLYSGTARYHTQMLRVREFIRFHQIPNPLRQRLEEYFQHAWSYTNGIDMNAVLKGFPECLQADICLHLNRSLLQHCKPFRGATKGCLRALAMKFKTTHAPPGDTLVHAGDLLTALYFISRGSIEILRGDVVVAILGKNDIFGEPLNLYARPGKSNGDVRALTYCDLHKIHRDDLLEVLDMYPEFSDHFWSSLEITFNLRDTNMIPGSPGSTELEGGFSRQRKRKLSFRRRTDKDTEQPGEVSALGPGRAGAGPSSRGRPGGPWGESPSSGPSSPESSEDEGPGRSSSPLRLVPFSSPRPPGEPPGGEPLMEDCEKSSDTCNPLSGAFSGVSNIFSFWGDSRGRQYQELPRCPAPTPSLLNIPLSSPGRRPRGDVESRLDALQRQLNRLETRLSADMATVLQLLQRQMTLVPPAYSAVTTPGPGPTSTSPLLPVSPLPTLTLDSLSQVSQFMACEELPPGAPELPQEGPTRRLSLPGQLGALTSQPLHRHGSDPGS

This assay has as its target human ether-à-go-go-related gene (hERG) potassium channel (human, UniProt Q12809). Nature of the assay: primary screen, population patch clamp on CHO cells stably expressing hERG.
Consider `O=C(Nc1ncn[nH]1)c1c(Cl)ccc(Cl)c1Cl`, for which the “hERG current change (%, negative = inhibition) at 10uM” value amounted to 3.73%.

In the case of `O=C(Cc1ccccc1)N1CCNCC1.O=C(O)C(=O)O`, the “hERG current change (%, negative = inhibition) at 10uM” value is on record as 27.9%.

Regarding `COc1ccc(C(=O)OCCN2CCCCC2)cc1.Cl`, the “hERG current change (%, negative = inhibition) at 10uM” value amounted to 0.271%.

On to `C1CNCCOCCNCCN1`, for which the “hERG current change (%, negative = inhibition) at 10uM” value is -1.69%.

For `Cc1onc(-c2ccccc2)c1C(=O)NCc1cccc(Cl)c1`, the “hERG current change (%, negative = inhibition) at 10uM” value stood at 15%.

Regarding `COc1ccc(C2=NN(C(=O)c3ccco3)C(c3ccco3)C2)cc1OC` (stereo not drawn), the “hERG current change (%, negative = inhibition) at 10uM” value was determined as 7.24%.

With `O=C(NCc1ccccc1)C1=C[C@@H](C2CC2)C[C@@H](OCc2ccc(CO)cc2)O1`, the “hERG current change (%, negative = inhibition) at 10uM” value is -44.2%.

With `COc1ccc(-c2cc(C(=O)NN)[nH]n2)cc1`, the “hERG current change (%, negative = inhibition) at 10uM” value is 14.7%.

For the compound `N#C/C(=C(/O)CN1CCOCC1)c1nc(-c2ccccc2)cs1`, the “hERG current change (%, negative = inhibition) at 10uM” value is 12.3%.

Consider `CCOc1ccc(-n2cc(C(=O)Nc3cccc(C)n3)c3cc(OC)c(OC)cc3c2=O)cc1`, for which the “hERG current change (%, negative = inhibition) at 10uM” value is 2.31%.

For `CCCCCCOC1(c2ccccc2)OC(=O)c2ccccc21` (stereo not drawn), the “hERG current change (%, negative = inhibition) at 10uM” value was 16.7%.

With `O=C(NC(NNc1ccc([N+](=O)[O-])cc1)(C(F)(F)F)C(F)(F)F)c1ccccc1Cl`, the “hERG current change (%, negative = inhibition) at 10uM” value is reported as -8.05%.

`Cc1cc(C)c(OCC(=O)OCC(=O)NCc2cccs2)c(C)c1`: the “hERG current change (%, negative = inhibition) at 10uM” value was -2.5%.

With `Cc1cc(NC(=O)CSc2cn(CC(=O)N(C(C)C)C(C)C)c3ccccc23)no1`, the “hERG current change (%, negative = inhibition) at 10uM” value was determined as 13.8%.

Take `O=C(O)CSc1nc2ccccc2o1`: the “hERG current change (%, negative = inhibition) at 10uM” value worked out at 3.8%.

On to `Cc1cccnc1NC(=O)CSc1ccc2c(c1)OCCO2`, for which the “hERG current change (%, negative = inhibition) at 10uM” value is on record as 6.85%.

Regarding `Br.O=S1(=O)C=CC(Sc2nc3ccccc3[nH]2)C1` (stereo not drawn), the “hERG current change (%, negative = inhibition) at 10uM” value was 4.15%.

Take `COc1ccc(C2C(C#N)=C(N)OC3=C2C(=O)CC(C)(C)C3)cc1Cn1cc([N+](=O)[O-])cn1` (stereo not drawn): the “hERG current change (%, negative = inhibition) at 10uM” value is -6.92%.

As to `O=C(CSc1ccc(Br)cc1)N1CCN(S(=O)(=O)c2ccccc2)CC1`, the “hERG current change (%, negative = inhibition) at 10uM” value was -14.7%.

For the compound `COC(=O)c1cc(OC)nc2ccc(Br)cc12`, the “hERG current change (%, negative = inhibition) at 10uM” value is recorded as -0.525%.

Regarding `Cc1ccc(CNC(=O)CSc2nc3ccccc3c(=O)n2CCCO)cc1`, the “hERG current change (%, negative = inhibition) at 10uM” value was -73%.

On to `CSc1nc(-c2ccccc2)nc(NC(=O)C(C)C)c1C(C)=O`, for which the “hERG current change (%, negative = inhibition) at 10uM” value is reported as -1.89%.

Consider `COc1ccc(S(=O)(=O)N2CCN(C)CC2)c2ccccc12`, for which the “hERG current change (%, negative = inhibition) at 10uM” value is on record as 1.21%.

With `CC(C)(C)Sc1ccc(/C=N/O)cc1[N+](=O)[O-]`, the “hERG current change (%, negative = inhibition) at 10uM” value is -28.7%.

Turning to `CC(=O)Nc1ccc(OCC(O)CN2CCN(c3ccc(Cl)cc3)CC2)cc1` (stereo not drawn), the “hERG current change (%, negative = inhibition) at 10uM” value is recorded as -52.7%.

As for `O=C(NC1CCCC1)C(c1ccc(F)cc1)N(Cc1ccc(F)cc1)C(=O)CCl` (stereo not drawn), the “hERG current change (%, negative = inhibition) at 10uM” value is 0.467%.

As to `CO[C@@]12[C@H](COC(N)=O)C3=C(C(=O)C(C)=C(N)C3=O)N1C[C@@H]1N[C@@H]12`, the “hERG current change (%, negative = inhibition) at 10uM” value is 2.61%.

Take `Cc1cccc(N2CCCn3c2nc2c3c(=O)n(CCN3CCOCC3)c(=O)n2C)c1`: the “hERG current change (%, negative = inhibition) at 10uM” value is -1.99%.

On to `CCCCn1c(=O)c(CCC(=O)OCC(=O)Nc2cc(Cl)ccc2OC)nc2ccccc21`, for which the “hERG current change (%, negative = inhibition) at 10uM” value is 6.11%.

As to `COc1ccc(CNC(=O)COc2cc(=O)n(C)c3ccccc23)cc1`, the “hERG current change (%, negative = inhibition) at 10uM” value was -0.673%.

In the case of `CCC(=O)Nc1sc(C(=O)N2CCCCC2)c(C)c1C#N`, the “hERG current change (%, negative = inhibition) at 10uM” value was determined as 12%.

For the compound `CN(Cc1ccccc1)c1nc2c(c(=O)[nH]c(=O)n2C)n1C`, the “hERG current change (%, negative = inhibition) at 10uM” value is -9.94%.

Take `COC(=O)c1ccc(NC(=O)CSC2=NC(=O)C(c3ccccc3)C(=O)N2)cc1` (stereo not drawn): the “hERG current change (%, negative = inhibition) at 10uM” value was -4.43%.

Consider `COc1ccc(N(CC(=O)NCCC2=CCCCC2)S(=O)(=O)c2ccc(C)cc2)cc1OC`, for which the “hERG current change (%, negative = inhibition) at 10uM” value came to 22.5%.

On to `N#CC1=C(N)Oc2n[nH]c(-c3ccccn3)c2C1c1c(F)cccc1Cl` (stereo not drawn), for which the “hERG current change (%, negative = inhibition) at 10uM” value was -3.23%.

Regarding `CC(=O)Oc1ccc2c(C)cc(=O)oc2c1`, the “hERG current change (%, negative = inhibition) at 10uM” value worked out at 7.11%.

On to `O=C(COc1ccc(S(=O)(=O)NCc2ccccc2)cc1Cl)NCc1ccccn1`, for which the “hERG current change (%, negative = inhibition) at 10uM” value is recorded as 7.06%.

On to `CC1(C)CC(=O)C=C(c2ccc3[nH]ccc3c2)C1`, for which the “hERG current change (%, negative = inhibition) at 10uM” value was determined as 1.61%.

As to `Cc1ccccc1Nc1nnc(SCC(=O)N(C)C2CCS(=O)(=O)C2)s1` (stereo not drawn), the “hERG current change (%, negative = inhibition) at 10uM” value is -9.28%.

Take `NNC(=O)c1cccc(S(=O)(=O)Nc2cccc(C(F)(F)F)c2)c1`: the “hERG current change (%, negative = inhibition) at 10uM” value was 1.4%.

For the compound `CCOP(=O)(OCC)C(NC(=O)Nc1cccc(Cl)c1)c1ccccc1` (stereo not drawn), the “hERG current change (%, negative = inhibition) at 10uM” value is 5.75%.

In the case of `Cc1cc(C)nc(SCC(=O)N(C)CC(=O)Nc2ccccc2Br)n1`, the “hERG current change (%, negative = inhibition) at 10uM” value is given as -22.3%.

Turning to `CCOP(=S)(OCC)N1CCOCCOCCN(P(=S)(OCC)OCC)CCOCCOCC1`, the “hERG current change (%, negative = inhibition) at 10uM” value is -22.7%.

Turning to `C=CCN1C(=O)C(CC(=O)O)S/C1=N/N=C/c1ccc(N(CC)CC)cc1` (stereo not drawn), the “hERG current change (%, negative = inhibition) at 10uM” value is on record as -0.434%.

With `O=C(c1ccccc1)N1CCN(c2nc3ccc([N+](=O)[O-])cc3s2)CC1`, the “hERG current change (%, negative = inhibition) at 10uM” value was -55.4%.

On to `CN(C)c1ccc(C(C(=O)NC2CCCC2)N(C(=O)c2ccco2)C2CC2)cc1` (stereo not drawn), for which the “hERG current change (%, negative = inhibition) at 10uM” value was determined as 4.5%.

Regarding `O=C(Cn1c2[n+](c3ccc(C(F)(F)F)cc31)CCCCC2)Nc1c(F)cccc1F.[Cl-]`, the “hERG current change (%, negative = inhibition) at 10uM” value is -16.7%.

Take `CN(C)CCCNC(=O)c1ccc(-c2ccccc2)cc1`: the “hERG current change (%, negative = inhibition) at 10uM” value is given as -36.7%.

For the compound `O=C(c1cc2nc(-c3ccccc3)cc(-c3ccccc3)n2n1)N1CCCC1`, the “hERG current change (%, negative = inhibition) at 10uM” value was determined as 9.99%.

Consider `O=C(Nc1cc([N+](=O)[O-])ccc1Cl)C1CC1`, for which the “hERG current change (%, negative = inhibition) at 10uM” value is 14.1%.

Take `O=C(O)c1cc(O)c2c(c1)[C@H]([C@H]1c3cc(C(=O)O)cc(O)c3C(=O)c3c(O[C@@H]4O[C@H](CO)[C@@H](O)[C@H](O)[C@H]4O)cccc31)c1cccc(OC3O[C@H](CO)[C@@H](O)[C@H](O)[C@H]3O)c1C2=O` (stereo partly drawn): the “hERG current change (%, negative = inhibition) at 10uM” value is reported as 3.5%.

Take `CCc1ccc2ncc(S(=O)(=O)c3ccc(C)c(C)c3)c(N3CCCC3)c2c1`: the “hERG current change (%, negative = inhibition) at 10uM” value was determined as 0.769%.

Turning to `Cc1cc(C=C2C(=O)NC(=O)NC2=O)c(C)n1-c1cccnc1`, the “hERG current change (%, negative = inhibition) at 10uM” value is recorded as 2.47%.

As to `COc1cccc(CNC(=O)C2CCN(S(=O)(=O)c3ccccc3)CC2)c1`, the “hERG current change (%, negative = inhibition) at 10uM” value was -36%.
